# Experimental data reported in the supplement of paper PMC9588766.
# Where a name gives a salt, the structure may show the parent alone. Whole data set: some 1,900 compounds, median “cell viability of compound + 1 nM pemigatinib relative to pemigatinib-only (DMSO) wells” near 0.95, cut for the lowest 2% near 0.22. The list shows a part of the results.
# Tested on: PDC-DUC18828
# Assay: cell viability of compound + 1 nM pemigatinib relative to pemigatinib-only (DMSO) wells (fraction); PDC-DUC18828 is a patient-derived cholangiocarcinoma cell line; higher = less growth inhibition
# Details: first compound 1 µM; pemigatinib concentration 1 nM; 72 h
# Method: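 Selleck Bioactive library screen in the patient-derived FGFR2 fusion-positive ICC cell line PDC-DUC18828 (500 cells/well). Each compound was tested at 1 uM with 1 nM pemigatinib, in triplicate, for 72 h. Viability was read by CellTiter-Glo and normalised to plate DMSO controls. Value is the paper's averaged normalised viability.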
row,Structure (SMILES),cell viability
1,C[C@@H]1COCCN1c1cc(C2([S@](C)(=N)=O)CC2)nc(-c2cc[nH]c3nccc2-3)n1 + CCN1C(=O)N(c2c(F)c(OC)cc(OC)c2F)Cc2cnc3[nH]c(CN4CCOCC4)cc3c21 [pemigatinib],0.929
2,C/C(=N\NC(=S)N1CCC1)c1ccccn1 + CCN1C(=O)N(c2c(F)c(OC)cc(OC)c2F)Cc2cnc3[nH]c(CN4CCOCC4)cc3c21 [pemigatinib],0.323
3,O=c1[nH]c(=O)n([C@H]2C[C@H](O)[C@@H](CO)O2)cc1F [Floxuridine] + CCN1C(=O)N(c2c(F)c(OC)cc(OC)c2F)Cc2cnc3[nH]c(CN4CCOCC4)cc3c21 [pemigatinib],0.982
4,CN(C)CCc1c[nH]c2ccc(C[C@H]3COC(=O)N3)cc12 [Zolmitriptan] + CCN1C(=O)N(c2c(F)c(OC)cc(OC)c2F)Cc2cnc3[nH]c(CN4CCOCC4)cc3c21 [pemigatinib],0.992
5,O=C1c2cccc(O)c2C(=O)c2c(O)cc(CO)cc21 [Aloe-emodin] + CCN1C(=O)N(c2c(F)c(OC)cc(OC)c2F)Cc2cnc3[nH]c(CN4CCOCC4)cc3c21 [pemigatinib],1.03
6,CN(C)CCC=C1c2ccccc2C=Cc2ccccc21 [Cyclobenzaprine HCl] + CCN1C(=O)N(c2c(F)c(OC)cc(OC)c2F)Cc2cnc3[nH]c(CN4CCOCC4)cc3c21 [pemigatinib],0.969
7,NS(=O)(=O)c1cc2c(cc1Cl)NCNS2(=O)=O [Hydrochlorothiazide] + CCN1C(=O)N(c2c(F)c(OC)cc(OC)c2F)Cc2cnc3[nH]c(CN4CCOCC4)cc3c21 [pemigatinib],0.979
8,O=C1C(=O)N(Cc2ccc(Cl)c(Cl)c2)c2ccccc21 [Apoptosis Activator 2] + CCN1C(=O)N(c2c(F)c(OC)cc(OC)c2F)Cc2cnc3[nH]c(CN4CCOCC4)cc3c21 [pemigatinib],0.776
9,O=C(NC1CCOCC1)c1ccc(-c2cc(-c3c[nH]nc3-c3ccccn3)ccn2)cc1 + CCN1C(=O)N(c2c(F)c(OC)cc(OC)c2F)Cc2cnc3[nH]c(CN4CCOCC4)cc3c21 [pemigatinib],0.999
10,C[N+]1(C)CCC(=C(c2ccccc2)c2ccccc2)CC1 [Diphemanil Methylsulfate] + CCN1C(=O)N(c2c(F)c(OC)cc(OC)c2F)Cc2cnc3[nH]c(CN4CCOCC4)cc3c21 [pemigatinib],0.97
11,COc1cc(/C=C/C(=O)O)ccc1O [Ferulic Acid] + CCN1C(=O)N(c2c(F)c(OC)cc(OC)c2F)Cc2cnc3[nH]c(CN4CCOCC4)cc3c21 [pemigatinib],0.958
12,CN[C@@H](C)C(=O)N[C@H](C(=O)N1CCC[C@H]1C(=O)Nc1snnc1-c1ccccc1)C1CCCCC1 + CCN1C(=O)N(c2c(F)c(OC)cc(OC)c2F)Cc2cnc3[nH]c(CN4CCOCC4)cc3c21 [pemigatinib],0.888
13,CN1CCN(c2cccc(Nc3nc4c(-c5ccc(S(C)(=O)=O)cc5)cccn4n3)c2)CC1 + CCN1C(=O)N(c2c(F)c(OC)cc(OC)c2F)Cc2cnc3[nH]c(CN4CCOCC4)cc3c21 [pemigatinib],0.856
14,COc1cc2nc(N3CCN(C(=O)C4CCCO4)CC3)nc(N)c2cc1OC (stereo not drawn) [Terazosin HCl] + CCN1C(=O)N(c2c(F)c(OC)cc(OC)c2F)Cc2cnc3[nH]c(CN4CCOCC4)cc3c21 [pemigatinib],1.05
15,CC(C)(O)CC[C@@H](O)[C@](C)(O)[C@H]1CC[C@@]2(O)C3=CC(=O)[C@@H]4C[C@@H](O)[C@@H](O)C[C@]4(C)[C@H]3CC[C@]12C [20-Hydroxyecdysone] + CCN1C(=O)N(c2c(F)c(OC)cc(OC)c2F)Cc2cnc3[nH]c(CN4CCOCC4)cc3c21 [pemigatinib],0.922
16,CNC(=O)c1nn(C)c2c1C(C)(C)Cc1cnc(Nc3ccc(N4CCN(C)CC4)cc3)nc1-2 + CCN1C(=O)N(c2c(F)c(OC)cc(OC)c2F)Cc2cnc3[nH]c(CN4CCOCC4)cc3c21 [pemigatinib],0.67
17,CN(C)CCCOc1nn(Cc2ccccc2)c2ccccc12 [Benzydamine HCl] + CCN1C(=O)N(c2c(F)c(OC)cc(OC)c2F)Cc2cnc3[nH]c(CN4CCOCC4)cc3c21 [pemigatinib],1.05
18,O=C1c2c(O)cc(O)cc2OC(c2ccc(O)c(O)c2)C1O (stereo not drawn) [Taxifolin (Dihydroquercetin)] + CCN1C(=O)N(c2c(F)c(OC)cc(OC)c2F)Cc2cnc3[nH]c(CN4CCOCC4)cc3c21 [pemigatinib],0.92
19,FC(F)(F)c1ccc(/C=C/c2nc(COc3ccc(CCCCn4ccnn4)cc3)co2)cc1 [Mubritinib (TAK 165)] + CCN1C(=O)N(c2c(F)c(OC)cc(OC)c2F)Cc2cnc3[nH]c(CN4CCOCC4)cc3c21 [pemigatinib],0.907

row,Structure (SMILES),cell viability
1,CC(=O)OCC(=O)[C@@]1(O)CC[C@H]2[C@@H]3CCC4=CC(=O)CC[C@]4(C)[C@H]3C(=O)C[C@@]21C [Cortisone acetate] + CCN1C(=O)N(c2c(F)c(OC)cc(OC)c2F)Cc2cnc3[nH]c(CN4CCOCC4)cc3c21 [pemigatinib],0.864
2,CNS(=O)(=O)Nc1nccc(Cc2c(C)c3ccc(Oc4ncccn4)cc3oc2=O)c1F + CCN1C(=O)N(c2c(F)c(OC)cc(OC)c2F)Cc2cnc3[nH]c(CN4CCOCC4)cc3c21 [pemigatinib],0.713
3,OC[C@@H](O)[C@@H](O)[C@H](O)[C@@H](O)CO [Sorbitol] + CCN1C(=O)N(c2c(F)c(OC)cc(OC)c2F)Cc2cnc3[nH]c(CN4CCOCC4)cc3c21 [pemigatinib],0.89
4,CC(C)(C)c1cc(C(=O)C(C#N)=NNc2cccc(Cl)c2)no1 + CCN1C(=O)N(c2c(F)c(OC)cc(OC)c2F)Cc2cnc3[nH]c(CN4CCOCC4)cc3c21 [pemigatinib],1.02
5,OCc1ccc(O[C@@H]2O[C@H](CO)[C@@H](O)[C@H](O)[C@H]2O)cc1 [Gastrodin] + CCN1C(=O)N(c2c(F)c(OC)cc(OC)c2F)Cc2cnc3[nH]c(CN4CCOCC4)cc3c21 [pemigatinib],0.957
6,O=C(NC(NC(=S)Nc1ccc(F)c([N+](=O)[O-])c1)C(Cl)(Cl)Cl)C(c1ccccc1)c1ccccc1 (stereo not drawn) + CCN1C(=O)N(c2c(F)c(OC)cc(OC)c2F)Cc2cnc3[nH]c(CN4CCOCC4)cc3c21 [pemigatinib],0.9
7,CCc1cc(C(N)=S)ccn1 [Ethionamide] + CCN1C(=O)N(c2c(F)c(OC)cc(OC)c2F)Cc2cnc3[nH]c(CN4CCOCC4)cc3c21 [pemigatinib],0.979
8,Cc1cn([C@@H]2C[C@@H](O)[C@H](CO)O2)c(=O)[nH]c1=O [Telbivudine] + CCN1C(=O)N(c2c(F)c(OC)cc(OC)c2F)Cc2cnc3[nH]c(CN4CCOCC4)cc3c21 [pemigatinib],0.954
9,Cc1cc(NC(=O)c2cccc(NC(=O)/C=C/CN(C)C)c2)ccc1Nc1nccc(-c2cccnc2)n1 + CCN1C(=O)N(c2c(F)c(OC)cc(OC)c2F)Cc2cnc3[nH]c(CN4CCOCC4)cc3c21 [pemigatinib],0.873
10,Cc1cccc(Nc2cc(Cl)nc(SCC(=O)O)n2)c1C + CCN1C(=O)N(c2c(F)c(OC)cc(OC)c2F)Cc2cnc3[nH]c(CN4CCOCC4)cc3c21 [pemigatinib],0.981
11,O=C(N/N=C/c1ccc([N+](=O)[O-])o1)c1ccc(O)cc1 [Nifuroxazide] + CCN1C(=O)N(c2c(F)c(OC)cc(OC)c2F)Cc2cnc3[nH]c(CN4CCOCC4)cc3c21 [pemigatinib],0.972
12,CCC[C@H](NC(=O)/C(C#N)=C/c1cccc(Br)n1)c1ccccc1 [Degrasyn (WP1130)] + CCN1C(=O)N(c2c(F)c(OC)cc(OC)c2F)Cc2cnc3[nH]c(CN4CCOCC4)cc3c21 [pemigatinib],0.857
13,CCOC(=O)NCCCC(=O)NCCc1ccccc1 + CCN1C(=O)N(c2c(F)c(OC)cc(OC)c2F)Cc2cnc3[nH]c(CN4CCOCC4)cc3c21 [pemigatinib],0.972
14,C=C1/C(=C\C=C2/CCC[C@]3(C)[C@@H]([C@H](C)CCCC(C)(C)O)CC[C@@H]23)C[C@@H](O)C[C@@H]1O [Calcitriol] + CCN1C(=O)N(c2c(F)c(OC)cc(OC)c2F)Cc2cnc3[nH]c(CN4CCOCC4)cc3c21 [pemigatinib],0.941
15,CCc1c2c(nc3ccc(OC(=O)N4CCC(N5CCCCC5)CC4)cc13)-c1cc3c(c(=O)n1C2)COC(=O)[C@]3(O)CC [Irinotecan] + CCN1C(=O)N(c2c(F)c(OC)cc(OC)c2F)Cc2cnc3[nH]c(CN4CCOCC4)cc3c21 [pemigatinib],0.353
16,CCc1c2c(nc3ccc(OC(=O)N4CCC(N5CCCCC5)CC4)cc13)-c1cc3c(c(=O)n1C2)COC(=O)[C@]3(O)CC [Irinotecan HCl Trihydrate] + CCN1C(=O)N(c2c(F)c(OC)cc(OC)c2F)Cc2cnc3[nH]c(CN4CCOCC4)cc3c21 [pemigatinib],0.501
17,C[C@H]1[C@H](NC(=O)/C(=N\OC(C)(C)C(=O)O)c2csc(N)n2)C(=O)N1S(=O)(=O)O [Aztreonam] + CCN1C(=O)N(c2c(F)c(OC)cc(OC)c2F)Cc2cnc3[nH]c(CN4CCOCC4)cc3c21 [pemigatinib],0.954
18,COC(=O)c1ccc2c(c1)[nH]c1ncnc(NCCCN3CCCCC3)c12 + CCN1C(=O)N(c2c(F)c(OC)cc(OC)c2F)Cc2cnc3[nH]c(CN4CCOCC4)cc3c21 [pemigatinib],0.929
19,OC[C@H]1O[C@@H](OCCc2ccc(O)cc2)[C@H](O)[C@@H](O)[C@@H]1O [Salidroside] + CCN1C(=O)N(c2c(F)c(OC)cc(OC)c2F)Cc2cnc3[nH]c(CN4CCOCC4)cc3c21 [pemigatinib],0.866
